In the supplement of paper PMC4967469:

Legend:
Assay in all cases: Viability of human cancer cell lines after 72 h of drug (GDSC screen)
VX-702 = compound: NC(=O)c1ccc(N(C(N)=O)c2c(F)cccc2F)nc1-c1ccc(F)cc1F [VX-702]; details: top dose 2 µM; top dose inferred
Procedure: (§1)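 Human cancer cell lines in 384-well plates, medium with 10% serum, drug for 72 h over a 256-fold dose range (nine 2-fold or five 4-fold steps up to the top dose). Adherent lines were fixed and stained with the nucleic acid dye Syto60, suspension lines read with resazurin; signal relative to control wells, capped at 0 and 100%. One two-parameter sigmoid per drug and line, fitted in a mixed model over all curves with the slope shared within a line.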

Shikonin = compound: CC(C)=CC[C@@H](O)C1=CC(=O)c2c(O)ccc(O)c2C1=O [Shikonin]; details: top dose 16 µM; top dose inferred
Procedure: as §1

HG-5-113-01 = compound: CNC(=O)c1ccc(Nc2cc(Nc3ccccc3S(=O)(=O)C(C)C)c3cc[nH]c3n2)nc1 [HG-5-113-01]; details: top dose 10 µM; top dose inferred
Procedure: as §1

CGP-082996 (CINK4) = compound: CCNc1cc(NC2CCC(O)CC2)nc(Nc2ccc3c(ccn3Cc3ccccc3)c2)n1 [CGP-082996 (CINK4)]; details: top dose 5.12 µM; top dose inferred
Procedure: as §1

A-770041 = compound: COc1cc(-c2nn([C@H]3CC[C@H](N4CCN(C(C)=O)CC4)CC3)c3ncnc(N)c23)ccc1NC(=O)c1cc2ccccc2n1C [A-770041]; details: top dose 5.12 µM; top dose inferred
Procedure: as §1

SB-525334 = compound: Cc1cccc(-c2[nH]c(C(C)(C)C)nc2-c2ccc3nccnc3c2)n1 [SB-525334]; details: top dose 20 µM; top dose inferred
Procedure: as §1

Olaparib = compound: O=C(c1cc(Cc2n[nH]c(=O)c3ccccc23)ccc1F)N1CCN(C(=O)C2CC2)CC1 [Olaparib]
Procedure: as §1

BMS-536924 = compound: Cc1cc(N2CCOCC2)cc2[nH]c(-c3c(NC[C@@H](O)c4cccc(Cl)c4)cc[nH]c3=O)nc12 [BMS-536924]
Procedure: as §1

Wee1 inhibitor 681640 = compound: O=C1NC(=O)c2c1c(-c1ccccc1Cl)cc1[nH]c3ccc(O)cc3c21 [Wee1 inhibitor 681640]; details: top dose 2 µM; top dose inferred
Procedure: as §1

XMD8-85 = compound: COc1cc(N2CCN(C)CC2)ccc1Nc1ncc2c(n1)N(C)c1ccccc1C(=O)N2C [XMD8-85]; details: top dose 8 µM; top dose inferred
Procedure: as §1

BIRB 0796 = compound: Cc1ccc(-n2nc(C(C)(C)C)cc2NC(=O)Nc2ccc(OCCN3CCOCC3)c3ccccc23)cc1 [BIRB 0796]; details: top dose 10 µM; top dose inferred
Procedure: as §1

[1] = top dose 5 µM, screen: GDSC drug entry 1017, top dose inferred
[2] = top dose 10 µM, screen: GDSC drug entry 1495
[3] = top dose 4 µM, screen: GDSC drug entry 1091, top dose inferred
[4] = top dose 5.12 µM, screen: GDSC drug entry 62

Cell Line	AUC (VX-702)	IC50 (VX-702) [µM]	AUC (Shikonin)	IC50 (Shikonin) [µM]	AUC (HG-5-113-01)	IC50 (HG-5-113-01) [µM]	AUC (CGP-082996 (CINK4))	IC50 (CGP-082996 (CINK4)) [µM]	AUC (A-770041)	IC50 (A-770041) [µM]	AUC (SB-525334)	IC50 (SB-525334) [µM]	AUC (Olaparib; [1])	IC50 (Olaparib; [1]) [µM]	AUC (Olaparib; [2])	IC50 (Olaparib; [2]) [µM]	AUC (BMS-536924; [3])	IC50 (BMS-536924; [3]) [µM]	AUC (BMS-536924; [4])	IC50 (BMS-536924; [4]) [µM]	AUC (Wee1 inhibitor 681640)	IC50 (Wee1 inhibitor 681640) [µM]	AUC (XMD8-85)	IC50 (XMD8-85) [µM]	AUC (BIRB 0796)	IC50 (BIRB 0796) [µM]
IST-MEL1 (melanoma, adherent)	0.974	> 2	0.724	4.98	0.757	4.05	0.839	4.52	0.609	0.678	0.837	17.3	0.961	> 5	0.892	> 10	0.964	> 4	0.822	3.78	0.876	> 2	0.852	> 8	0.982	> 10
JJN-3 (haematopoietic neoplasm, suspension)	0.961	> 2	0.368	0.464	0.776	3.27	0.963	> 5.12	0.968	> 5.12	0.969	> 20	0.993	> 5	0.992	> 10	0.965	> 4	0.867	3.29	0.992	> 2	0.915	> 8	0.992	> 10
K5 (thyroid, adherent)	0.986	> 2	0.452	0.745	0.722	2.58	0.976	> 5.12	0.884	> 5.12	0.978	> 20	0.956	> 5	0.881	9.72	0.922	> 4	0.749	1.6	0.918	> 2	0.926	> 8	0.981	> 10
KCL-22 (chronic myeloid leukaemia, suspension)	0.991	> 2	0.303	0.312	0.778	3.4	0.938	> 5.12	0.66	0.82	0.976	> 20	0.988	> 5	0.988	> 10	0.991	> 4	0.94	> 5.12	0.991	> 2	0.903	7.57	0.982	> 10
KELLY (neuroblastoma, adherent)	0.989	> 2	0.39	0.515	0.734	2.69	0.989	> 5.12	0.986	> 5.12	0.871	16	0.951	> 5	0.917	> 10	0.861	2.89	0.911	> 5.12	0.756	0.627	0.957	> 8	0.98	> 10
KGN (ovary, adherent)	0.981	> 2	0.515	1.11	0.742	3.64	0.872	> 5.12	0.62	0.734	0.698	5.13	0.981	> 5	0.916	> 10	0.962	> 4	0.65	0.916	0.848	2	0.758	3.34	0.977	> 10
KINGS-1 (glioma, adherent)	0.981	> 2	0.759	7.63	0.864	> 10	0.869	> 5.12	0.8	3.67	0.981	> 20	0.981	> 5	0.966	> 10	0.959	> 4	0.865	> 5.12	0.953	> 2	0.951	> 8	0.976	> 10
KM12 (large intestine, adherent)	0.986	> 2	0.452	0.73	0.778	4.42	0.98	> 5.12	0.958	> 5.12	0.936	> 20	0.985	> 5	0.983	> 10	0.748	1.39	0.272	0.0671	0.896	> 2	0.858	7.52	0.978	> 10
KNS-42 (glioma, adherent)	0.971	> 2	0.701	4.15	0.811	6.63	0.905	> 5.12	0.905	> 5.12	0.971	> 20	0.984	> 5	0.956	> 10	0.958	> 4	0.919	> 5.12	0.969	> 2	0.893	> 8	0.983	> 10
KP-N-YN (neuroblastoma, adherent)	0.987	> 2	0.759	6.09	0.682	2.13	0.946	> 5.12	0.941	> 5.12	0.883	> 20	0.985	> 5	0.985	> 10	–	–	0.909	> 5.12	0.955	> 2	0.986	> 8	0.851	8.82

By IC50 is meant the dose at which the fit gives 50% viability; where the fit passes the top or lowest dose, that dose stands as a limit. AUC is the area under the same curve over the 256-fold range up to the top dose, as a fraction; it is 1 without any effect and falls as sensitivity rises. The top dose, if marked as inferred, was calculated from the reported fits. For part of these data: Drugs with an entry number were screened twice under separate entries, and the two screens often disagree.
